Measured values from PubChem BioAssay AID588342 (National Center for Advancing Translational Sciences (NCATS), 2011).
Screen size: about 360,000 compounds; about 25,000 (6.9%) were called active. Inconclusive means that the source gave no clear call. Such entries were picked first, then a sample of the others. The call rests on the fitted dose curve; in most records, active means well fitted inhibition curve with a large enough effect; inconclusive means small, poorly fitted or top-dose-only effect; inactive means flat fitted curve, though single readings scatter. Where the call is inconclusive, the potency comes from a doubtful curve fit.

The molecules below were run against Luciferin 4-monooxygenase (Photinus pyralis) (UniProt P08659) (assay: qHTS profiling assay for firefly luciferase inhibitor/activator using purifed enzyme and Km concentrations of substrates (counterscreen for miR-21 project)). Details: purified FLuc, luminescence inhibition; series mostly up to 57.5 µM.
Procedure, shortened: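 Purified P. pyralis luciferase, 10 nM final, with Km-level 10 uM D-luciferin and 10 uM ATP in 50 mM Tris acetate pH 7.5, 10 mM Mg acetate, 0.01% Tween-20, 0.05% BSA; 6-point qHTS titration about 60 µM downward; luminescence read.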
Further: nearly all actives have a fitted effect of over 55% in size.
Potency means the concentration at half of the fitted maximal effect; tags describe the fitted curve by direction and shape.

Sequence of UniProt P08659 (P08659 whole entry, looked up): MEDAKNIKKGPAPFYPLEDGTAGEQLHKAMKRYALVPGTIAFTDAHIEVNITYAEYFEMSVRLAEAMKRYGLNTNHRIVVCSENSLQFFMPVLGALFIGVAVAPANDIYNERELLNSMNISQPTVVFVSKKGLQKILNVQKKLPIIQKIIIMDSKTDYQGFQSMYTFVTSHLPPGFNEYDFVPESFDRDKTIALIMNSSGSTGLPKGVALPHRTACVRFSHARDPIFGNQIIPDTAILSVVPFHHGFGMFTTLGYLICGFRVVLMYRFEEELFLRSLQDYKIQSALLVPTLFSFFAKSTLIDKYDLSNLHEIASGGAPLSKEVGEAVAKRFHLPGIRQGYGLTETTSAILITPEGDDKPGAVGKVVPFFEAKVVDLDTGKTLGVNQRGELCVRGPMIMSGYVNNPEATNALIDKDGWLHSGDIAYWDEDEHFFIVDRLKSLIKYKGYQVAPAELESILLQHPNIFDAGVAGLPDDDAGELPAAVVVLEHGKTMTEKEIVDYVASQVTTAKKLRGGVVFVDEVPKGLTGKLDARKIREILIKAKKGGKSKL

SMILES	Potency
CC(=O)c1cccc(Nc2c3c(nc4nc(-c5cccs5)nn24)CCCC3)c1	inconclusive: 23.9 µM [inhibitor, single point]
Cc1ccc(C(=O)Oc2ccc(/C=N/NC(N)=O)cc2)cc1	inconclusive: 6.75 µM [inhibitor, partial curve, poor fit]
Oc1ccccc1N1CCN(C(=S)NCCc2ccccc2)CC1	inconclusive: 37.9 µM [inhibitor, partial curve, poor fit]
Clc1ccc(CSc2nnc(-c3ccc4c(c3)OCO4)o2)cc1	inconclusive: 21.3 µM [inhibitor, partial curve, poor fit]
CC(C)c1ccc(/C=N/N2CCN(c3ccccn3)CC2)cc1	inconclusive: 8.49 µM [inhibitor, partial curve]
CC1(C)CC(=O)C=C(c2ccc(Oc3ccccc3)cc2)C1	inconclusive: 12 µM [inhibitor, single point]
COc1ccccc1NC(=O)Nc1ccc2c(c1)nnn2C	active: 12 µM
Cc1ccc(OCC(=O)Nc2c(Cl)ccc3nsnc23)cc1C	inactive
CC(C)[C@H](NC(=O)[C@@H]1Cc2c([nH]c3ccccc23)C2c3ccccc3C(=O)N21)C(=O)N1CCC[C@@H]1C(=O)O (stereo not given in full)	inactive
O=C(NCCc1ccccn1)c1ccc(COc2ccccc2)o1	inconclusive: 16.9 µM [inhibitor, partial curve, poor fit]
CCOC(=O)c1sc(Nc2ccccc2Cl)nc1C	active: 15.1 µM
O=C(N/N=C/c1cn(-c2ccccc2)nc1-c1cccs1)c1ccc(Cl)cc1	inconclusive: 10.7 µM [inhibitor, partial curve]
CCn1cc(C(=O)NCc2ccc(Cl)cc2)c(=O)c2cc(S(=O)(=O)N(C)C)ccc21	inactive
FC(F)(F)c1ccc(C2=Nc3ccccc3NC(c3cccs3)=N2)cc1	inactive
O=C(c1ccc(Br)o1)N1CCc2ccccc21	active: 4.78 µM
Cc1oc2ccc(O)cc2c1C(=O)c1ccc(Cl)cc1	inconclusive: 23.9 µM [inhibitor, partial curve, poor fit]
CCOc1ccc(N=C2NN=C(c3cc(C)n(CC4CCCO4)c3C)CS2)cc1 (stereo not given)	active: 13.5 µM
CCc1nnc(NS(=O)(=O)c2ccc(N/C=C/C(=O)c3ccc(OC)cc3)cc2)s1	active: 21.3 µM
CC(NC(=O)Nc1ccc(Cl)cc1)C1CCCO1 (stereo not given)	inconclusive: 23.9 µM [inhibitor, single point]
Cc1ccccc1N=C1NC(=O)/C(=C/c2cccn2C)S1	inconclusive: 33.8 µM [inhibitor, partial curve, poor fit]
